From the supplement of paper PMC8728848
Some of the results follow.

What was measured:
Experiment in all cases: glycan array binding signal (z-score within array); higher = stronger binding
Details in all cases: glycan notation: IUPAC condensed, linker removed
Fuc(a1-2)Gal = molecular target: Fuc(a1-2)Gal
Summary of the method: (§1)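 The binding signal is a Z-score computed within each array and averaged over linkers. Arrays of the same protein sequence at different concentrations or buffers were also averaged together. Data originate from 3228 arrays in the Consortium for Functional Glycomics database, kept only where the protein sequence was available.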

Fuc(a1-2)Gal(b1-3)GalNAc = molecular target: Fuc(a1-2)Gal(b1-3)GalNAc
Summary of the method: as §1

[1] = molecular target: Fuc(a1-2)Gal(b1-3)GalNAc(a1-3)[Fuc(a1-2)]Gal(b1-4)Glc
Summary of the method: as §1

[2] = molecular target: Fuc(a1-2)Gal(b1-3)GalNAc(a1-3)[Fuc(a1-2)]Gal(b1-4)GlcNAc
Summary of the method: as §1

[3] = molecular target: Fuc(a1-2)Gal(b1-3)GalNAc(b1-3)Gal
Summary of the method: as §1

[4] = molecular target: Fuc(a1-2)Gal(b1-3)GalNAc(b1-3)Gal(a1-4)Gal(b1-4)Glc
Summary of the method: as §1

[5] = molecular target: Fuc(a1-2)Gal(b1-3)GalNAc(b1-4)[Neu5Ac(a2-3)]Gal(b1-4)Glc
Summary of the method: as §1

Fuc(a1-2)Gal(b1-3)GlcNAc = molecular target: Fuc(a1-2)Gal(b1-3)GlcNAc
Summary of the method: as §1

[6] = molecular target: Fuc(a1-2)Gal(b1-3)GlcNAc(b1-2)Man(a1-3)[Fuc(a1-2)Gal(b1-3)GlcNAc(b1-2)Man(a1-6)]Man(b1-4)GlcNAc(b1-4)GlcNAc
Summary of the method: as §1

[7] = molecular target: Fuc(a1-2)Gal(b1-3)GlcNAc(b1-2)Man(a1-3)[Fuc(a1-2)Gal(b1-3)GlcNAc(b1-2)Man(a1-6)]Man(b1-4)GlcNAc(b1-4)[Fuc(a1-6)]GlcNAc
Summary of the method: as §1

[8] = molecular target: Fuc(a1-2)Gal(b1-3)GlcNAc(b1-3)Gal(b1-4)Glc
Summary of the method: as §1

[9] = molecular target: Fuc(a1-2)Gal(b1-3)GlcNAc(b1-3)GalNAc
Summary of the method: as §1

[10] = molecular target: Fuc(a1-2)Gal(b1-3)GlcNAc(b1-3)[Fuc(a1-2)Gal(b1-3)GlcNAc(b1-6)]GalNAc
Summary of the method: as §1

[11] = molecular target: Fuc(a1-2)Gal(b1-3)GlcNAc(b1-3)[Gal(b1-4)GlcNAc(b1-6)]Gal(b1-4)Glc
Summary of the method: as §1

[12] = molecular target: Fuc(a1-2)Gal(b1-3)GlcNAc(b1-3)[Neu5Ac(a2-6)Gal(b1-4)GlcNAc(b1-6)]Gal(b1-4)Glc
Summary of the method: as §1

[13] = molecular target: Fuc(a1-2)Gal(b1-3)GlcNAc6S
Summary of the method: as §1

[14] = molecular target: Fuc(a1-2)Gal(b1-3)[Fuc(a1-4)]GlcNAc
Summary of the method: as §1

[15] = molecular target: Fuc(a1-2)Gal(b1-3)[Fuc(a1-4)]GlcNAc(b1-2)Man(a1-3)[Fuc(a1-2)Gal(b1-3)[Fuc(a1-4)]GlcNAc(b1-2)Man(a1-3)]Man(b1-4)GlcNAc(b1-4)GlcNAc
Summary of the method: as §1

[16] = molecular target: Fuc(a1-2)Gal(b1-3)[Fuc(a1-4)]GlcNAc(b1-2)Man(a1-3)[Fuc(a1-2)Gal(b1-3)[Fuc(a1-4)]GlcNAc(b1-2)Man(a1-6)]Man(b1-4)GlcNAc(b1-4)[Fuc(a1-6)]GlcNAc(b1-4)[Fuc(a1-6)]GlcNAc
Summary of the method: as §1

[17] = molecular target: Fuc(a1-2)Gal(b1-3)[Fuc(a1-4)]GlcNAc(b1-3)[Fuc(a1-3)[Gal(b1-4)]GlcNAc(b1-6)]Gal(b1-4)Glc
Summary of the method: as §1

[18] = molecular target: Fuc(a1-2)Gal(b1-3)[Fuc(a1-4)]GlcNAc(b1-3)[Gal(b1-4)GlcNAc(b1-6)]Gal(b1-4)Glc
Summary of the method: as §1

Fuc(a1-2)Gal(b1-4)Glc = molecular target: Fuc(a1-2)Gal(b1-4)Glc
Summary of the method: as §1

Fuc(a1-2)Gal(b1-4)Glc6S = molecular target: Fuc(a1-2)Gal(b1-4)Glc6S
Summary of the method: as §1

Fuc(a1-2)Gal(b1-4)GlcNAc = molecular target: Fuc(a1-2)Gal(b1-4)GlcNAc
Summary of the method: as §1

[19] = molecular target: Fuc(a1-2)Gal(b1-4)GlcNAc(b1-2)Man
Summary of the method: as §1

[20] = molecular target: Fuc(a1-2)Gal(b1-4)GlcNAc(b1-2)Man(a1-3)[Fuc(a1-2)Gal(b1-4)GlcNAc(b1-2)Man(a1-6)]Man(b1-4)GlcNAc(b1-4)GlcNAc
Summary of the method: as §1

[21] = molecular target: Fuc(a1-2)Gal(b1-4)GlcNAc(b1-2)Man(a1-3)[Fuc(a1-2)Gal(b1-4)GlcNAc(b1-2)Man(a1-6)]Man(b1-4)GlcNAc(b1-4)[Fuc(a1-6)]GlcNAc
Summary of the method: as §1

[22] = molecular target: Fuc(a1-2)Gal(b1-4)GlcNAc(b1-2)[Fuc(a1-2)Gal(b1-4)GlcNAc(b1-4)]Man(a1-3)[Fuc(a1-2)Gal(b1-4)GlcNAc(b1-2)Man(a1-6)]Man(b1-4)GlcNAc(b1-4)GlcNAc
Summary of the method: as §1

[23] = molecular target: Fuc(a1-2)Gal(b1-4)GlcNAc(b1-3)Gal(b1-4)GlcNAc
Summary of the method: as §1

[24] = molecular target: Fuc(a1-2)Gal(b1-4)GlcNAc(b1-3)Gal(b1-4)GlcNAc(b1-2)Man(a1-3)[Fuc(a1-2)Gal(b1-4)GlcNAc(b1-3)Gal(b1-4)GlcNAc(b1-2)Man(a1-6)]Man(b1-4)GlcNAc(b1-4)GlcNAc
Summary of the method: as §1

[25] = molecular target: Fuc(a1-2)Gal(b1-4)GlcNAc(b1-3)Gal(b1-4)GlcNAc(b1-3)Gal(b1-4)GlcNAc
Summary of the method: as §1

[26] = molecular target: Fuc(a1-2)Gal(b1-4)GlcNAc(b1-3)GalNAc
Summary of the method: as §1

[27] = molecular target: Fuc(a1-2)Gal(b1-4)GlcNAc(b1-3)[Fuc(a1-2)Gal(b1-4)GlcNAc(b1-6)]GalNAc
Summary of the method: as §1

[28] = molecular target: Fuc(a1-2)Gal(b1-4)GlcNAc(b1-3)[Fuc(a1-3)[Gal(b1-4)]GlcNAc(b1-6)]Gal(b1-4)Glc
Summary of the method: as §1

[29] = molecular target: Fuc(a1-2)Gal(b1-4)GlcNAc(b1-6)GalNAc
Summary of the method: as §1

[30] = molecular target: Fuc(a1-2)Gal(b1-4)GlcNAc6S
Summary of the method: as §1

[31] = molecular target: Fuc(a1-2)Gal(b1-4)[Fuc(a1-3)]GlcNAc
Summary of the method: as §1

[32] = molecular target: Fuc(a1-2)Gal(b1-4)[Fuc(a1-3)]GlcNAc(b1-2)Man(a1-3)[Fuc(a1-2)Gal(b1-4)[Fuc(a1-3)]GlcNAc(b1-2)Man(a1-6)]Man(b1-4)GlcNAc(b1-4)[Fuc(a1-6)]GlcNAc
Summary of the method: as §1

[33] = molecular target: Fuc(a1-2)Gal(b1-4)[Fuc(a1-3)]GlcNAc(b1-2)[Fuc(a1-2)Gal(b1-4)[Fuc(a1-3)]GlcNAc(b1-4)]Man(a1-3)[Fuc(a1-2)Gal(b1-4)[Fuc(a1-3)]GlcNAc(b1-2)Man(a1-6)]Man(b1-4)GlcNAc(b1-4)GlcNAc
Summary of the method: as §1

[34] = molecular target: Fuc(a1-2)Gal(b1-4)[Fuc(a1-3)]GlcNAc(b1-3)Gal(b1-4)[Fuc(a1-3)]GlcNAc
Summary of the method: as §1

[35] = molecular target: Fuc(a1-2)Gal(b1-4)[Fuc(a1-3)]GlcNAc(b1-3)Gal(b1-4)[Fuc(a1-3)]GlcNAc(b1-3)Gal(b1-4)[Fuc(a1-3)]GlcNAc
Summary of the method: as §1

[36] = molecular target: Fuc(a1-2)Gal(b1-4)[Fuc(a1-3)]GlcNAc(b1-3)GalNAc
Summary of the method: as §1

[37] = molecular target: Fuc(a1-2)Gal(b1-4)[Fuc(a1-3)]GlcNAc(b1-3)[Neu5Ac(a2-6)Gal(b1-4)GlcNAc(b1-6)]Gal(b1-4)Glc
Summary of the method: as §1

[38] = molecular target: Fuc(a1-2)Gal3S(b1-4)GlcNAc
Summary of the method: as §1

[39] = molecular target: Fuc(a1-2)Gal6S(b1-3)GlcNAc
Summary of the method: as §1

B1: Epa22 (Candida glabrata) (protein)
chain: MGSSHHHHHHSSGLVPRGSHMKRALSSQNPFGYPIGCSPQSTNVIPGLTMELYSYPIVSGTPPNCYDASYVDPEYPRTGYLKRKMIGKSTGVTGSLNYKFSVEKACMVKYGNLPAGYNYNEPLTVSNFTMLLYGYFKPQTSGIHTFFVNADDLLYINFGAGNAFDCCKREDSKFKLGEYVAYDIWHVDSSKNKVSLNLEKDVYYPIRMFFNNIGKDSSLDLSFSVNGAVEHITDFSGYLYSVPDQPDACPAPIGYDTTCK
glycan array binding signal (z-score) (Fuc(a1-2)Gal): -0.385 | glycan array binding signal (z-score) (Fuc(a1-2)Gal(b1-3)GalNAc): -0.38 | glycan array binding signal (z-score) [1]: -0.361 | glycan array binding signal (z-score) [2]: -0.373 | glycan array binding signal (z-score) [3]: -0.282 | glycan array binding signal (z-score) [4]: -0.328 | glycan array binding signal (z-score) [5]: -0.408 | glycan array binding signal (z-score) (Fuc(a1-2)Gal(b1-3)GlcNAc): -0.39 | glycan array binding signal (z-score) [6]: 0.003 | glycan array binding signal (z-score) [7]: -0.398 | glycan array binding signal (z-score) [8]: -0.387 | glycan array binding signal (z-score) [9]: -0.308 | glycan array binding signal (z-score) [10]: 1.01 | glycan array binding signal (z-score) [11]: -0.338 | glycan array binding signal (z-score) [12]: -0.338 | glycan array binding signal (z-score) [13]: -0.242 | glycan array binding signal (z-score) [14]: -0.376 | glycan array binding signal (z-score) [15]: -0.235 | glycan array binding signal (z-score) [16]: -0.404 | glycan array binding signal (z-score) [17]: -0.366 | glycan array binding signal (z-score) [18]: -0.334 | glycan array binding signal (z-score) (Fuc(a1-2)Gal(b1-4)Glc): -0.378 | glycan array binding signal (z-score) (Fuc(a1-2)Gal(b1-4)Glc6S): -0.03 | glycan array binding signal (z-score) (Fuc(a1-2)Gal(b1-4)GlcNAc): -0.287 | glycan array binding signal (z-score) [19]: -0.333 | glycan array binding signal (z-score) [20]: -0.348 | glycan array binding signal (z-score) [21]: -0.333 | glycan array binding signal (z-score) [22]: -0.376 | glycan array binding signal (z-score) [23]: -0.384 | glycan array binding signal (z-score) [24]: -0.382 | glycan array binding signal (z-score) [25]: -0.358 | glycan array binding signal (z-score) [26]: -0.33 | glycan array binding signal (z-score) [27]: -0.256 | glycan array binding signal (z-score) [28]: -0.38 | glycan array binding signal (z-score) [29]: 0.233 | glycan array binding signal (z-score) [30]: 1.13 | glycan array binding signal (z-score) [31]: -0.42 | glycan array binding signal (z-score) [32]: -0.338 | glycan array binding signal (z-score) [33]: -0.275 | glycan array binding signal (z-score) [34]: -0.398 | glycan array binding signal (z-score) [35]: -0.393 | glycan array binding signal (z-score) [36]: -0.313 | glycan array binding signal (z-score) [37]: -0.222 | glycan array binding signal (z-score) [38]: 1.56 | glycan array binding signal (z-score) [39]: 1.1
